These results are taken from paper doi:10.1101/2025.11.15.688632, “Disordered activation domains enhance DNA target search rate of a bZIP transcription factor” (bioRxiv, 2025).

This data set concerns the molecule itself. Description: stopped-flow fluorescence (dilution-driven relaxation kinetics); dimer to monomers; 10.8-200 nM labelled CREB (AlexaFluor 488 or 594 on C323) diluted 11-fold into biophysical buffer (10 mM HEPES pH 7.4, 150 mM NaCl, 10 mM MgCl2, 0.05% Tween-20), 25 °C; paired traces fitted to a two-state model.

B1: AlexaFluor 488-labelled pseudo wild-type full-length CREB (natural protein)
chain: not shown
modifications: AlexaFluor 488 maleimide on C323
notes: N-terminal scar left by ULP-1 cleavage of the His6-SUMO tag; C286 and C296 mutated to serine, C323 reintroduced for labelling; numbers count on: isoform B ([…]); also called fluorescently-labelled pseudo wild-type CREB; source: E. coli Rosetta2 (DE3), purified (heat treatment, HisTrap, heparin, anion exchange), labelled by maleimide chemistry; not shown: His6, N-terminal, cleaved; SUMO, …
Regarding B1, the Kd – broadly, the free concentration of one partner at which half of the binding sites on the other are occupied at equilibrium, for simple one-to-one binding – was 26 nM; the koff (usually the first-order rate constant of dissociation) was found to be 0.1 s⁻¹; the kon – broadly, a measure of how fast the partners come together – came to 8e+06 ± 2e+06 M⁻¹ s⁻¹.
